These results are taken from PubChem BioAssay AID1508623 (National Center for Advancing Translational Sciences (NCATS), 2021).

In all, about 48,000 compounds went through this assay and about 450 (0.94%) were called active. About 19% were inconclusive and are not listed. The call rests on the fitted dose curve; in most records, active means well fitted inhibition curve with a large enough effect; inconclusive means small, poorly fitted or top-dose-only effect; inactive means no such curve, though single readings can be large or run the other way. The list shows a part of the results.

The experiment is described as follows: Primary qHTS for Identification of Small Molecule Inhibitors of Huntingtin Promoter Activity. Further: nearly all actives have a fitted effect of over 50% in size. Particulars: HEK293 HTT promoter firefly luciferase reporter (activity 0% = vehicle and -100% = no light), 24 h; series mostly up to 57.5 µM; activity change, negative = inhibition: at the top concentration. The source says:
Assay Provider: Russell L. Margolis M.D.
Department Neurology, Johns Hopkins University School of Medicine, Baltimore, MD
Huntington's Disease (HD) is a neurodegenerative disorder caused by a CAG repeat expansion in exon 1 of huntingtin (HTT). While there are currently no disease-modifying treatments for HD, recent efforts have focused on development of nucleotide-based therapeutics to lower HTT expression. As an alternative to siRNA or oligonucleotide methods, we hypothesized that suppression of HTT expression might be accomplished by small molecules that either (1) directly decrease HTT expression by suppressing HTT promoter activity or (2) indirectly decrease HTT expression by increasing the promoter activity of HTT-AS, the gene antisense to HTT that appears to inhibit expression of HTT.
We developed and employed a high throughput screen for modifiers of HTT and HTT-AS promoter activity using luminescent reporter HEK293 cells; of the 52,041 compounds tested, we identified 898 replicable hits. We used a rigorous stepwise approach to assess compound toxicity and the capacity of the compounds to specifically lower huntingtin protein in 5 different cell lines, including HEK293 cells, HD lymphoblastoid cells, mouse primary neurons, HD iPSCs differentiated into cortical-like neurons, and HD hESCs. We found no compounds which were able to lower huntingtin without lowering cell viability in all assays, though the potential efficacy of a few compounds at non-toxic doses could not be excluded.
SEQUENCE No. (1, 2, 3, etc.); […] (e.g., Cells, Incubation, Reagent, etc.); VALUE and DESCRIPTION.
1; Reagent; 4 uL; 2,500 Hek293 luciferase reporter cells per wells
3; Compound; 23 nL; Control inhibitor / compound library
5; Reagent; 2.5 uL; Firefly Luc reagent; Dual-Glo Luciferase Reporter Assay System (Promega)
6; Time; 10 min; room temperature incubation
7; Detection; Luminescence; FLuc
NOTES (numbers refer to sequence above)
1; High-throughput screening, measuring luminescence from a Hek293 luciferase reporter, was performed in 1,536 well white-walled tissue-culture treated plates. 2,500 cells were plated in 4 µL of Opti-MEM per well using a Multidrop Combi Reagent Dispenser (ThermoFisher).
2; Assay plates were cultured for 24 hours.
3; Control inhibitor (PTC124; final concentration of 50 uM) and compound library (at final concentrations of 460 nM - 57.5 uM) were added to the assay plate using the Kalypsis Pintool Robotic System equipped with 1536 pinheads.
4; Cells were then incubated for 24 hours at 37 degrees C prior to luminescence measurements.
5; In all cases, luminescence was measured using the Dual-Glo Luciferase Reporter Assay System (Promega) following the manufacturer's instructions.
6; Room temperature incubation.
7; Luminescence signal was obtained using the PerkinElmer ViewLux plate reader. Results were normalized to vehicle control (0% activity) and zero RLU (-100% activity).
A general note: In qHTS, concentration-response curves come from the screen itself.
Turning to `CCN1C(=O)c2ccccc2S(=O)(=O)c2ccc(C(=O)NCc3ccc(F)cc3)cc21`, the “activity change, negative = inhibition” value was inactive: -17.9%.

In the case of `Nc1c(NC/C=C\COc2cc(CN3CCCCC3)ccn2)c(=O)c1=O`, the “activity change, negative = inhibition” value was inactive: -8.53% [at 25.2 µM]. As for `CC(=O)N[C@@H](CS)C(=O)O`, the “activity change, negative = inhibition” value is inactive: 5.62%. To `COc1ccc(NC(=O)c2ccc3[nH]c(C)cc(=O)c3c2)cc1` belongs inactive: 14.9%; to `Cc1ccc(/C=C/C(=O)Nc2ccc(Cl)cc2Cl)cc1`, inactive: 24.6%. In the case of `Cc1ccc(NC(=O)Cc2coc3c(C)c(C)ccc23)c(C)c1` it was inactive: -3.51%; in that of `Cc1ccc(-n2cc(C(=O)OCc3ccc(Cl)cc3)c3ccccc3c2=O)cc1`, inactive: -11.3%. In the case of `COC(=O)C1CCN(c2csc3ccc(C)cc3c2=O)CC1` it was inactive: 14.8%; in that of `Cc1ccc(C)c(NC(=O)CN(Cc2ccccc2)S(=O)(=O)c2ccc3nc(C)sc3c2)c1`, inactive: -20.6%; in that of `NCc1ccccc1Sc1ccccc1CO`, inactive: 5.38%. On to `COc1cc(C2Oc3nc(SC)nnc3-c3ccccc3N2C(C)=O)cc(Cl)c1OC` (configuration not stated), for which the activity change, negative = inhibition was inactive: -17.3% [at 11.5 µM]. In the case of `Cc1cc(Br)ccc1NC(=O)c1sc2ncn(Cc3ccccc3Cl)c(=O)c2c1C`, the “activity change, negative = inhibition” value was inactive: 4.51%. To `Cc1cccc(NC(=O)CCS(=O)(=O)c2cc(Br)cc3c2N(C(=O)C2CC2)CC3)c1C` belongs inactive: -11.5%. For the compound `CCCNC(=O)Cn1nc(C)c2c(C)n(-c3ccccc3)nc2c1=O`, the “activity change, negative = inhibition” value was inactive: -11.6%. In the case of `CC1CCN(S(=O)(=O)c2cccc(C(=O)N(C)C3(C)CCS(=O)(=O)C3)c2)CC1` (configuration not stated) it was inactive: -27.5%; in that of `CC(NC(=O)C1CCN(C(=O)N2CCOc3ccccc32)CC1)c1ccccc1` (configuration not stated), inactive: 1.38%; in that of `CCCCNC(=O)CSc1nc2ccccc2nc1Cc1ccccc1`, inactive: -10.4%. To `Cc1ccc(N2CC(NC(=O)C3CCCC3)CC2=O)cc1` (configuration not stated) belongs inactive: -21.9%.

For the compound `CC(C)CCNC(=O)c1ccc(NC(=O)N2CCCCc3ccccc32)cc1`, the “activity change, negative = inhibition” value is inactive: -2.68%. In the case of `COc1cccc(N2CCN(C(=O)Cn3ncc4c3-c3ccccc3OC4)CC2)c1` it was inactive: -18.7%; in that of `Cc1ccc(C(=O)c2cn(CC(=O)Nc3ccc4c(c3)OCCO4)c3nc(C)ccc3c2=O)cc1`, inactive: -16.5%.

As to `CC(C)CC(NC(=O)C1CCC(C)CC1)C(=O)OCC(=O)c1ccc(Cl)cc1` (configuration not stated), the “activity change, negative = inhibition” value was inactive: -28.4%.

As to `O=C(CSc1nc2ccccc2n1Cc1ccccc1)NCc1ccccc1`, the “activity change, negative = inhibition” value is inactive: -25.1%. In the case of `CSc1oc(-c2ccc(F)cc2)nc1S(=O)(=O)c1ccc(Br)cc1` it was inactive: -29.1%; in that of `Cc1cc(C)cc(OC(C)C(=O)Nc2nc3c(s2)CCCC3)c1` (configuration not stated), inactive: -19.6%; in that of `COc1ccc(NC(=O)c2ccco2)cc1NC(=O)c1ccc(OC(C)C)cc1`, inactive: -18.5%. To `COc1ccc(Oc2ncnc3c2oc2ccccc23)cc1` belongs inactive: 40.8%; to `CCOC(=O)c1ccc(NC(=O)C2CCCN(c3cnccn3)C2)cc1` (configuration not stated), inactive: 15.6%. Turning to `COc1cccc(/C=C(\C#N)c2nc3ccccc3c(=O)[nH]2)c1OC`, the “activity change, negative = inhibition” value was inactive: -11.2%. In the case of `CCCC(C(=O)Nc1cc(C)c(Cl)cc1OC)N1Cc2ccccc2C1=O` (configuration not stated) it was inactive: -12.4%. To `COc1ccc(CCNC(=O)Cn2nc(-c3ccc(Cl)cc3)ccc2=O)cc1OC` belongs inactive: -19.1%.

For `COc1cn(CC(=O)Nc2cccc(C)c2)c(CN2CCCCC2)cc1=O`, the “activity change, negative = inhibition” value is inactive: -12.7%. With `Cc1ccc(NC(=O)N2CCC(CN3CCCCC3)CC2)c(Cl)c1`, the “activity change, negative = inhibition” value is inactive: -11.7%. Take `CCn1cc(/C=C(\NC(=O)c2ccc(OC)c(OC)c2)C(=O)NCCCn2ccnc2)c2ccccc21`: the “activity change, negative = inhibition” value is inactive: -3.23%.

As for `Cc1nc2sccn2c(=O)c1S(=O)(=O)Nc1cccc(Cl)c1C`, the “activity change, negative = inhibition” value is inactive: -27.5%. As for `CC(=O)c1ccc(N2CCN(S(=O)(=O)c3ccc(-c4cnc(C5CC5)o4)cc3)CC2)cc1`, the “activity change, negative = inhibition” value is inactive: -23.7%. In the case of `Cc1ccc(N2CCN(C(=O)CCS(=O)(=O)c3cc4c(cc3Cl)NC(=O)CO4)CC2)c(C)c1` it was inactive: -26.9%. Turning to `CC1CCN(c2nc3c(S(=O)(=O)c4cccc(Cl)c4)nnn3c3ccsc23)CC1`, the “activity change, negative = inhibition” value was inactive: -21.5%. For `O=C(O)Cc1cccc(OCCCN(Cc2cccc(C(F)(F)F)c2Cl)CC(c2ccccc2)c2ccccc2)c1`, the “activity change, negative = inhibition” value is inactive: -1.81%.

As to `CC(C)(C)OC(=O)N1CCC(c2c(C(=O)N3CCN(c4ncccn4)CC3)cnn2-c2ccc(F)cc2)CC1`, the “activity change, negative = inhibition” value was inactive: -18.7%.

Turning to `CCOC(=O)c1c(-c2ccc(OC)cc2)oc2ccc(OCc3ccc(F)cc3F)cc12`, the activity change, negative = inhibition is inactive: -9.34% [at 11.5 µM]. To `Cc1cn2c(=O)cc(COC(=O)c3ccc(NC(=O)c4ccc(C(C)(C)C)cc4)cc3)nc2s1` belongs inactive: -24.7%.

For `COc1ccc(CNS(=O)(=O)c2csc(C(N)=O)c2)cc1OC`, the “activity change, negative = inhibition” value was inactive: -13%. In the case of `COc1ccc(C2=Nc3ccccc3N(CC(=O)Nc3cccc(C(C)=O)c3)C(=O)C2)cc1` it was inactive: 18.2%. To `CCOC(=O)c1ccc(NC(=O)C(CC)Sc2nncn3c2cc2oc(C)cc23)cc1` (configuration not stated) belongs inactive: -0.125%. As to `CCCCNc1nc2c(-c3cccc(Br)c3)nnn2c2ccccc12`, the “activity change, negative = inhibition” value was inactive: 8.39%. Turning to `COc1cccc2c1cc1c(=O)n(CC(=O)NCCCN3CCN(C)CC3)nc(C)n12`, the “activity change, negative = inhibition” value was inactive: -1.65%.

As for `O=C1Nc2c(c(=O)[nH]c(=O)n2-c2ccc(F)cc2)C1(NS(=O)(=O)c1ccc(Cl)cc1)C(F)(F)F` (configuration not stated), the “activity change, negative = inhibition” value is inactive: -10.3%.

`COC(=O)c1ccc(OCC2c3cc(OC)c(OC)cc3CCN2C(=O)Cc2ccc(OC)c(OC)c2)cc1` (configuration not stated): the “activity change, negative = inhibition” value is inactive: -18.4%.

With `CC(C)c1nn2c(=O)cc(COC(=O)c3ccc4c(c3)OCO4)nc2s1`, the “activity change, negative = inhibition” value was inactive: -0.963%. On to `Cc1cn2c(=O)c(S(=O)(=O)NCCc3ccc(Cl)cc3)c(C)nc2s1`, for which the “activity change, negative = inhibition” value is inactive: -7.63%. In the case of `CC(=O)N1CCc2c(sc3c2c(=O)n(-c2ccccc2)c(=O)n3CC(=O)c2ccc(F)cc2)C1` it was inactive: 7.82%; in that of `COc1cc(C(=O)Nc2nnc(CC(C)(C)C)s2)cc(OC)c1OC`, inactive: -4.01%; in that of `CCc1ccc2occ(CC(=O)NCc3ccccc3)c2c1`, inactive: -21.5%.

Turning to `COc1ccc(-c2nc3sc(CCNC(=O)c4ccc(C(C)(C)C)cc4)c(C)n3n2)cc1`, the “activity change, negative = inhibition” value is inactive: 52.9%.

Turning to `CCOc1ccccc1C(=O)Nc1cc2c(cc1C)n(C)c(=O)c(=O)n2C`, the “activity change, negative = inhibition” value is inactive: -5.89%. On to `CCOC(=O)C1CCC(CN(Cc2ccc(OC)cc2)S(=O)(=O)c2ccc(F)c(C(=O)Nc3cc(Cl)ccc3OC)c2)CC1` (configuration not stated), for which the “activity change, negative = inhibition” value is inactive: 6.65%. As for `COc1ccc(CNC(=O)CN(C)S(=O)(=O)c2ccc3[nH]c4c(c3c2)CCCC4)cc1`, the “activity change, negative = inhibition” value is inactive: -28.9%. Turning to `Cn1cc(-c2cc3n(n2)CCC(=O)N3CCCC(=O)NCc2ccccc2)c2ccccc21`, the “activity change, negative = inhibition” value is inactive: -9.2%. Regarding `CCN(CC)CCNC(=O)Cn1cnc2sc(C)c(S(=O)(=O)N3CCC(C)CC3)c2c1=O`, the “activity change, negative = inhibition” value is inactive: -10.7%.

Consider `CCOC(=O)c1cnc2c(C)cc(C)cc2c1Nc1ccc(N2CCOCC2)cc1`, for which the “activity change, negative = inhibition” value was inactive: -9.86%.

`Cc1oc(-c2ccc(Cl)cc2)nc1CN1CCCC(C(=O)NCc2ccc(Cl)cc2)C1` (configuration not stated): the “activity change, negative = inhibition” value is inactive: -6.05%.
